From PMC2694832, “Pharmacokinetics, tissue distribution and mass balance of radiolabeled dihydroartemisinin in male rats” (Malaria Journal, 2009)
The source gives many values for each of these; only a part stands here.

Experiment: Tissue distribution of [^14C] DHA
Format: in vivo
Settings: male rats i.v. 3 mg/20 μCi/kg
Procedure: Rats treated with a single [^14C] DHA dose of 3 mg/20 μCi/kg intravenously (5 rats per group) were anesthaetized by isofluorane and euthanized via cardiac puncture at 1, 6, 24, 48, 72, 96, and 192 hours, post-dosing. Blood, liver, brain, eyes, adrenals, muscle, lungs, heart, liver, kidneys, spleen, stomach, small intestine, large intestine, perirenal fat and bone marrow samples were removed from each animal by gross dissection. The gastrointestinal tract (GI) was separated into the stomach (oesophagus and stomach), small intestine, and large intestine. Contents were procured from each GI segment. After flushing with saline, these and other tissues were stored. Tissues were rinsed gently, but thoroughly with water to remove remaining traces of blood before storage. Dissecting instruments were also washed between tissue procurements to avoid cross-contamination.
For most of the tissues 20% (w/w) aqueous homogenates of the tissue were prepared. Aqueous homogenates of the faecal and GI content samples were also prepared. Metabolism cages were washed with a solution of 2% Count-off® and the volume was measured. Radioactivity in the plasma samples and in aliquots (approx. 0.02–1.0 ml) of urine and cage washings was determined. The blood cells (primarily erythrocytes), perirenal fat (approx. 0.2 g), bone marrow samples (approx. 0.1 ml), and approximately 300-μl aliquots of the homogenates of faeces, liver, kidneys, heart, brain, stomach and carcass were solubilized with SolvableTM tissue solubilizer (Perkin-Elmer Life and Analytical Sciences, Boston, MA). The homogenates of faeces, stomach content, and intestinal contents were extracted with 50% methanol for 24 hours. Aliquots of blood and pooled urine samples from selected intervals were also analysed for DHA content directly.
Total radioactivity in the collected tissue samples were quantified in duplicate. Weighed tissue aliquots (~0.2 g) were digested overnight in 2 ml of Solvable® tissue solubilizer (Perkin-Elmer Life and Analytical Sciences, Boston, MA) at 50°C. Coloured samples were decolourized by adding a maximum of 0.2 ml of 30% H2O2 for 30–60 minutes. Scintillation cocktail (Hyonic Fluor; Perkin-Elmer Boston. Massachusetts, USA) was then added and radioactivity determined in a Perkin-Elmer Tri-Carb 3100 TR scintillation spectrophotometer (Packard Instrument Co., Downers Grove, Illinois, USA). Faeces and intestinal contents were thoroughly homogenized before taking aliquots. Plasma was also analysed using the HPLC-ECD system to measure the concentration of unchanged DHA, as described by Li et al.

With `C[C@@H]1CC[C@H]2[C@@H]([14CH3])C(O)O[C@@H]3O[C@@]4(C)CC[C@@H]1[C@]32OO4` (some centres unmarked) [[^14C] DHA, [16-^14C] DHA] the Distribution of radioactivity (Adrenals, 1 hr) was 5614.75 ng equivalents/tissue gram, the Distribution of radioactivity (Adrenals, 6 hr) was 3451.81 ng equivalents/tissue gram and the Distribution of radioactivity (Adrenals, 24 hr) was 2034.62 ng equivalents/tissue gram. The Distribution of radioactivity (Adrenals, 48 hr) was 3002.03 ng equivalents/tissue gram, the Distribution of radioactivity (Adrenals, 72 hr) was 1630.57 ng equivalents/tissue gram and the Distribution of radioactivity (Adrenals, 96 hr) was 1653.43 ng equivalents/tissue gram. The Distribution of radioactivity (Adrenals, 192 hr) was 1543.60 ng equivalents/tissue gram, the Distribution of radioactivity (Brain, 1 hr) was 578.68 ng equivalents/tissue gram and the Distribution of radioactivity (Brain, 6 hr) was 326.57 ng equivalents/tissue gram. For the same compound, the Distribution of radioactivity (Brain, 24 hr) was 160.11 ng equivalents/tissue gram, the Distribution of radioactivity (Brain, 48 hr) was 127.38 ng equivalents/tissue gram and the Distribution of radioactivity (Brain, 72 hr) was 138.35 ng equivalents/tissue gram. The Distribution of radioactivity (Brain, 96 hr) was 119.67 ng equivalents/tissue gram, the Distribution of radioactivity (Brain, 192 hr) was 133.52 ng equivalents/tissue gram and the Distribution of radioactivity (Eyes, 1 hr) was 279.20 ng equivalents/tissue gram. For the same compound, the Distribution of radioactivity (Eyes, 6 hr) was 239.95 ng equivalents/tissue gram, the Distribution of radioactivity (Eyes, 24 hr) was 64.78 ng equivalents/tissue gram and the Distribution of radioactivity (Eyes, 48 hr) was 46.86 ng equivalents/tissue gram. The Distribution of radioactivity (Eyes, 72 hr) was 51.58 ng equivalents/tissue gram, the Distribution of radioactivity (Eyes, 96 hr) was 98.06 ng equivalents/tissue gram and the Distribution of radioactivity (Eyes, 192 hr) was 121.94 ng equivalents/tissue gram. The Distribution of radioactivity (Fat, 1 hr) was 1391.80 ng equivalents/tissue gram, the Distribution of radioactivity (Fat, 6 hr) was 218.23 ng equivalents/tissue gram and the Distribution of radioactivity (Fat, 24 hr) was 80.24 ng equivalents/tissue gram. For the same compound, the Distribution of radioactivity (Fat, 48 hr) was 62.09 ng equivalents/tissue gram, the Distribution of radioactivity (Fat, 72 hr) was 61.62 ng equivalents/tissue gram and the Distribution of radioactivity (Fat, 96 hr) was 43.52 ng equivalents/tissue gram. For the same compound, the Distribution of radioactivity (Fat, 192 hr) was 84.86 ng equivalents/tissue gram, the Distribution of radioactivity (Muscle, 1 hr) was 698.14 ng equivalents/tissue gram and the Distribution of radioactivity (Muscle, 6 hr) was 499.29 ng equivalents/tissue gram. For the same compound, the Distribution of radioactivity (Muscle, 24 hr) was 171.74 ng equivalents/tissue gram, the Distribution of radioactivity (Muscle, 48 hr) was 163.19 ng equivalents/tissue gram and the Distribution of radioactivity (Muscle, 72 hr) was 174.04 ng equivalents/tissue gram. The Distribution of radioactivity (Muscle, 96 hr) was 92.20 ng equivalents/tissue gram, the Distribution of radioactivity (Muscle, 192 hr) was 115.14 ng equivalents/tissue gram and the Distribution of radioactivity (Plasma, 72 hr) was 64.70 ng equivalents/tissue gram. The Distribution of radioactivity (Plasma, 96 hr) was 34.58 ng equivalents/tissue gram and the Distribution of radioactivity (Plasma, 192 hr) was 22.84 ng equivalents/tissue gram.
